Test results: the RNAGym collection of RNA variant scans (doi:10.1073/pnas.2313332121)
This sample is rich in variants without activity.

B1: TPR 5TU (parent)
chain: GGAUCUUCUCGAUCUAACAAAAAAGACAAAUCUGCCACAAAGCUUGAGAGCAUCUUCGGAUGCAGAGGCGGCAGCCUUCGGUGGCGCGAUAGCGCCAACGUUCUCAACUAUGACACGCAAAACGCGUGCUCCGUUGAAUGGAGUUUAUCAUG

Variants of: B1
Experiment: polymerase ribozyme fitness, log enrichment relative to wild type (log ratio); higher = more active; in vitro selection for triplet polymerase activity
In short: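 To select mutant libraries of each subunit of a heterodimeric triplet polymerase ribozyme, built by PCR and transcribed, each was annealed with a biotinylated primer, partner subunit and triplets, then incubated frozen at −7 °C. Extended constructs were gel-excised, captured on streptavidin beads and amplified by RT-PCR, in one round carried out in triplicate. Illumina sequencing of input and output libraries kept genotypes with ≥10 input reads and ≥1 read per output. Fitness is the base-2 logarithm of genotype enrichment relative to wild-type enrichment, from inverse-variance-weighted replicate averages.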

Row | Variant | polymerase ribozyme fitness (log ratio)
1 | GGAUCUUCUCGAUCUAACAAAAAAGACAAAUCUGCCACAAAGCUUGAGAGCAUCUUCGGAUGCAGAGGCGGCAGCCUUCGGUGGCGCGAUAGCGCCAACGUUCUCAACUAUGAUACGCAAAACGCGUGCUCCGUUGAAUGGAGUUUCUCAUG [C114U A147C] | -2.83
2 | GGAUCUUCUCGAUCUAACAAAAAAGACAAAUCUGCCACAAAGCUUGAGAGCAUCUUCGGAUGCAGAGGCGGCAGCCUUCGGUGGCGCGAUAGCGCCAACGUUCUCAACUAUGACAUGCAAAACGCGUGCUCCGUUGAAUGGAGUUUAUCAUG [C116U] | 0.103
3 | GGAUCUUCUCGAUCUAACAAAAAAGACAAAUCUGCCACAAAGCUUGAGAGCAUCUUCGGAUGCAGAGGCGGCAGCCUUCGGUGGCGCGAUAGCGCCAACGUUCUCAACUAUGACAAGCAAAACGCGUGCUCCGUUGAAUGGAGUUUAUCAUG [C116A] | 1.34
4 | GGAUCUUCUCGAUCUAACAAAAAAGACAAAUCUGCCACAAAGCUUGAGAGCAUCUUCGGAUGCAGAGGCGGCAGCCUUCGGUGGCGCGAUAGCGCCAACGUUCUCAACUAUGACAGGCAAAACGCGUGCUCCGUUGAAUGGAGUUUAUCAUG [C116G] | 0.655
5 | GGAUCUUCUCGAUCUAACAAAAAAGACAAAUCUGCCACAAAGCUUGAGAGCAUCUUCGGAUGCAGAGGCGGCAGCCUUCGGUGGCGCGAUAGCGCCAACGUUCUCAACUAUGGCACGCAAAACGCGUGCUCCGUUGAAUGGAGUUUCUCAUG [A113G A147C] | -2.73
6 | GGAUCUUCUCGAUCUAACAAAAAAGACAAAUCUGCCACAAAGCUUGAGAGCAUCUUCGGAUGCAGAGGCGGCAGCCUUCGGUGGCGCGAUAGCGCCAACGUUCUCAACUAUGACUCGAAAAACGCGUGCUCCGUUGAAUGGAUUGUAUCAUG [A115U C118A G143U U145G] | ≤ -4.2
7 | GGAUCUUCUCGAUCUAACAAAAAAGACAAAUCUGCCACAAAGCUUGAGAGCAUCUUCGGAUGCAGAGGCGGCAGCCUUCGGUGGCGCGAUAGCGCCAACGUUCUCAACUAUGACAAGCAAAACGCGUGCUCCGUUGAAUGGCGUUUAUCAUG [C116A A142C] | -3.92
8 | GGAUCUUCUCGAUCUAACAAAAAAGACAAAUCUGCCACAAAGCUUGAGAGCAUCUUCGGAUGCAGAGGCGGCAGCCUUCGGUGGCGCGAUAGCGCCAACGUUCUCAACUAUGACUCGCAAAACGCGUGCUCCGGGGAAUGGAGUUUAUCAUG [A115U U134G U135G] | ≤ -4.2
9 | GGAUCUUCUCGAUCUAACAAAAAAGACAAAUCUGCCACAAAGCUUGAGAGCAUCUUCGGAUGCAGAGGCGGCAGCCUUCGGUGGCGCGAUAGCGCCAACGUUCUCAACUAUGACAUGCAAAUCGCGUGCUCCGUUGAAUGGAGUUUAUCAUG [C116U A122U] | -0.326
10 | GGAUCUUCUCGAUCUAACAAAAAAGACAAAUCUGCCACAAAGCUUGAGAGCAUCUUCGGAUGCAGAGGCGGCAGCCUUCGGUGGCGCGAUAGCGCCAACGUUCUCAACUAUGGCACGCAAAACGCGUGCUCCGAUGAAUGGAGUUUAUCAUG [A113G U134A] | ≤ -4.2
11 | GGAUCUUCUCGAUCUAACAAAAAAGACAAAUCUGCCACAAAGCUUGAGAGCAUCUUCGGAUGCAGAGGCGGCAGCCUUCGGUGGCGCGAUAGCGCCAACGUUCUCAACUAUGAAACGCAAAACGCGUGCUCCGUUGAAUGGAGUUUAUGAUG [C114A C149G] | ≤ -4.2
12 | GGAUCUUCUCGAUCUAACAAAAAAGACAAAUCUGCCACAAAGCUUGAGAGCAUCUUCGGAUGCAGAGGCGGCAGCCUUCGGUGGCGCGAUAGCGCCAACGUUCUCAACUAUGACAUGCAAAACGCGUGCUCCGUUGAAUGGAGUUAAUCAUG [C116U U146A] | -0.753
13 | GGAUCUUCUCGAUCUAACAAAAAAGACAAAUCUGCCACAAAGCUUGAGAGCAUCUUCGGAUGCAGAGGCGGCAGCCUUCGGUGGCGCGAUAGCGCCAACGUUCUCAACUAUGACAUGCAAAACGCGUGCUCCGUUGAAUGGAGUUUAACAUG [C116U U148A] | -3.85
14 | GGAUCUUCUCGAUCUAACAAAAAAGACAAAUCUGCCACAAAGCUUGAGAGCAUCUUCGGAUGCAGAGGCGGCAGCCUUCGGUGGCGCGAUAGCGCCAACGUUCUCAACUAUGUCACGCAGAACGCGUGCUCCGUUGAAUGGAGUUUAUCAUG [A113U A120G] | -1.73
15 | GGAUCUUCUCGAUCUAACAAAAAAGACAAAUCUGCCACAAAGCUUGAGAGCAUCUUCGGAUGCAGAGGCGGCAGCCUUCGGUGGCGCGAUAGCGCCAACGUUCUCAACUAUGACAUGCAAAACGGGUGCUCCGUUGAAUGGAGUUUAUCAUG [C116U C125G] | 1.23
16 | GGAUCUUCUCGAUCUAACAAAAAAGACAAAUCUGCCACAAAGCUUGAGAGCAUCUUCGGAUGCAGAGGCGGCAGCCUUCGGUGGCGCGAUAGCGCCAACGUUCUCAACUAUGAUACGCAAAACGCGUGCUCCGUUGAAUGGAGUUUAUCAGG [C114U U151G] | -4.08
17 | GGAUCUUCUCGAUCUAACAAAAAAGACAAAUCUGCCACAAAGCUUGAGAGCAUCUUCGGAUGCAGAGGCGGCAGCCUUCGGUGGCGCGAUAGCGCCAACGUUCUCAACUAUGAUACGCAAAACGCGUGCUCCGUUGAAUGGAGUUUAUCACG [C114U U151C] | ≤ -4.2
18 | GGAUCUUCUCGAUCUAACAAAAAAGACAAAUCUGCCACAAAGCUUGAGAGCAUCUUCGGAUGCAGAGGCGGCAGCCUUCGGUGGCGCGAUAGCGCCAACGUUCUCAACUAUGACAAGCAAAACGCGUGCUCCGUUGAAUGGAGUUUACCAUG [C116A U148C] | -3.09
19 | GGAUCUUCUCGAUCUAACAAAAAAGACAAAUCUGCCACAAAGCUUGAGAGCAUCUUCGGAUGCAGAGGCGGCAGCCUUCGGUGGCGCGAUAGCGCCAACGUUCUCAACUAUGGCACGCAAAACGCGUGCUCCGUUGAAUGGAGUUUAACAUG [A113G U148A] | -4.05

Row | Variant | polymerase ribozyme fitness (log ratio)
20 | GGAUCUUCUCGAUCUAACAAAAAAGACAAAUCUGCCACAAAGCUUGAGAGCAUCUUCGGAUGCAGAGGCGGCAGCCUUCGGUGGCGCGAUAGCGCCAACGUUCUCAACUAUGAGACGCAAAACGAGUGCUCCGUUGAAUUGACUUUAUCAUG [C114G C125A G140U G143C] | ≤ -4.2
21 | GGAUCUUCUCGAUCUAACAAAAAAGACAAAUCUGCCACAAAGCUUGAGAGCAUCUUCGGAUGCAGAGGCGGCAGCCUUCGGUGGCGCGAUAGCGCCAACGUUCUCAACUAUGACAUGCAAAACGCGUGCUCCGUUGAAUGGUGUUUAUCAUG [C116U A142U] | -0.344
22 | GGAUCUUCUCGAUCUAACAAAAAAGACAAAUCUGCCACAAAGCUUGAGAGCAUCUUCGGAUGCAGAGGCGGCAGCCUUCGGUGGCGCGAUAGCGCCAACGUUCUCAACUAUGACUCGCGAAACGCGUGCUCCGUUGAGUGGAGUUUAUCAUG [A115U A119G A138G] | ≤ -4.2
23 | GGAUCUUCUCGAUCUAACAAAAAAGACAAAUCUGCCACAAAGCUUGAGAGCAUCUUCGGAUGCAGAGGCGGCAGCCUUCGGUGGCGCGAUAGCGCCAACGUUCUCAACUAUGACCCGCAAAACGCGUGCUCCUUUGAAUGGAGUUUAUCAUG [A115C G133U] | -3.74
24 | GGAUCUUCUCGAUCUAACAAAAAAGACAAAUCUGCCACAAAGCUUGAGAGCAUCUUCGGAUGCAGAGGCGGCAGCCUUCGGUGGCGCGAUAGCGCCAACGUUCUCAACUAUGAUACGCAAAACCCGUGCUCCGUUGAAUGGAGUUUAUCAUG [C114U G124C] | -4.11
25 | GGAUCUUCUCGAUCUAACAAAAAAGACAAAUCUGCCACAAAGCUUGAGAGCAUCUUCGGAUGCAGAGGCGGCAGCCUUCGGUGGCGCGAUAGCGCCAACGUUCUCAACUAUGACAGGCAAAACCCGUGCUCCGUUGAAUGGAGUUUACCAUG [C116G G124C U148C] | ≤ -4.2
26 | GGAUCUUCUCGAUCUAACAAAAAAGACAAAUCUGCCACAAAGCUUGAGAGCAUCUUCGGAUGCAGAGGCGGCAGCCUUCGGUGGCGCGAUAGCGCCAACGUUCUCAACUAUGAAACGCAAAACGCGUGCUCCGUUGAAUAGAGUUUAGCAUG [C114A G140A U148G] | ≤ -4.2
27 | GGAUCUUCUCGAUCUAACAAAAAAGACAAAUCUGCCACAAAGCUUGAGAGCAUCUUCGGAUGCAGAGGCGGCAGCCUUCGGUGGCGCGAUAGCGCCAACGUUCUCAACUAUGACGCGCAAAACCCGUGCUCGGUUGUAUGGAGUUUAUCAUG [A115G G124C C132G A137U] | ≤ -4.2
28 | GGAUCUUCUCGAUCUAACAAAAAAGACAAAUCUGCCACAAAGCUUGAGAGCAUCUUCGGAUGCAGAGGCGGCAGCCUUCGGUGGCGCGAUAGCGCCAACGUUCUCAACUAUGACAGGCAAAACGCGUGCUCCGUUGAAUCGAGUUUAUCAUG [C116G G140C] | -3.81
29 | GGAUCUUCUCGAUCUAACAAAAAAGACAAAUCUGCCACAAAGCUUGAGAGCAUCUUCGGAUGCAGAGGCGGCAGCCUUCGGUGGCGCGAUAGCGCCAACGUUCUCAACUAUGACAAGCAAAACGCGUGCUCCGUUGAAUUGAGUUUAUCAUG [C116A G140U] | -4.02
30 | GGAUCUUCUCGAUCUAACAAAAAAGACAAAUCUGCCACAAAGCUUGAGAGCAUCUUCGGAUGCAGAGGCGGCAGCCUUCGGUGGCGCGAUAGCGCCAACGUUCUCAACUAUGAUACGCAAAACGCGUGCUCCGUUGAAUCGAGUUUAUCCUG [C114U G140C A150C] | ≤ -4.2
31 | GGAUCUUCUCGAUCUAACAAAAAAGACAAAUCUGCCACAAAGCUUGAGAGCAUCUUCGGAUGCAGAGGCGGCAGCCUUCGGUGGCGCGAUAGCGCCAACGUUCUCAACUAUGUCACGCAAAACGCGUGCUCCGUUGAAUGGAGUUCAUCAUG [A113U U146C] | -1.49
32 | GGAUCUUCUCGAUCUAACAAAAAAGACAAAUCUGCCACAAAGCUUGAGAGCAUCUUCGGAUGCAGAGGCGGCAGCCUUCGGUGGCGCGAUAGCGCCAACGUUCUCAACUAUGACAGGCUAAACGCGUGCUCCGUUGAAUGGAGUUUAUCAUG [C116G A119U] | 0.403
33 | GGAUCUUCUCGAUCUAACAAAAAAGACAAAUCUGCCACAAAGCUUGAGAGCAUCUUCGGAUGCAGAGGCGGCAGCCUUCGGUGGCGCGAUAGCGCCAACGUUCUCAACUAUGACAUGCAAAACGCGUGCUCCGUUGAAUGUAGUUUAUCAUG [C116U G141U] | 1.29
34 | GGAUCUUCUCGAUCUAACAAAAAAGACAAAUCUGCCACAAAGCUUGAGAGCAUCUUCGGAUGCAGAGGCGGCAGCCUUCGGUGGCGCGAUAGCGCCAACGUUCUCAACUAUGAGACGCAAAACCCGUGCUCCGUUGAAUGGAGUUUAUCAUG [C114G G124C] | -4.13
35 | GGAUCUUCUCGAUCUAACAAAAAAGACAAAUCUGCCACAAAGCUUGAGAGCAUCUUCGGAUGCAGAGGCGGCAGCCUUCGGUGGCGCGAUAGCGCCAACGUUCUCAACUAUGACAGGAAAAACGCGUGCUCCGUUGAAUAGCGUUUAUCAUG [C116G C118A G140A A142C] | ≤ -4.2
36 | GGAUCUUCUCGAUCUAACAAAAAAGACAAAUCUGCCACAAAGCUUGAGAGCAUCUUCGGAUGCAGAGGCGGCAGCCUUCGGUGGCGCGAUAGCGCCAACGUUCUCAACUAUGACACACAAAACGCGUGCUCCGUUGAAUGGAGUUUAUCAUG [G117A] | 0.231
37 | GGAUCUUCUCGAUCUAACAAAAAAGACAAAUCUGCCACAAAGCUUGAGAGCAUCUUCGGAUGCAGAGGCGGCAGCCUUCGGUGGCGCGAUAGCGCCAACGUUCUCAACUAUGACACCCAAAACGCGUGCUCCGUUGAAUGGAGUUUAUCAUG [G117C] | 0.422
38 | GGAUCUUCUCGAUCUAACAAAAAAGACAAAUCUGCCACAAAGCUUGAGAGCAUCUUCGGAUGCAGAGGCGGCAGCCUUCGGUGGCGCGAUAGCGCCAACGUUCUCAACUAUGACACACAAAACGCGUGCUCCGUUGAAUGGUGUUUAUCAUG [G117A A142U] | -4.13
